# From PubChem BioAssay AID938 (National Center for Advancing Translational Sciences (NCATS), 2007)
# The campaign covered roughly 73,000 compounds. About 1,800 (2.5%) were called active. Inconclusive results, whose numbers are uncertain, are shown with a selection of clear calls. Calls come from the whole dose curve; as a rule, active = well fitted activation curve with a large enough effect; inconclusive = small, poorly fitted or top-dose-only effect; inactive = no such curve, though single readings can be large or run the other way. No potency is given beside an inconclusive call; the fits are too rough.
# Assay: qHTS Assay for Agonists of the Thyroid Stimulating Hormone Receptor: Activators of Intracellular cAMP Concentrations in Parental HEK 293; note: nearly all actives have a fitted effect of over 55% in size; for activation: % of control where 0% means no effect
# Conditions: parental HEK293 CNG cAMP sensor, membrane potential fluorescence; activation: at 57.1 µM (top of the series) unless noted
# How it was run: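 Parental HEK 293 cells stably expressing a modified CNG channel (no TSHR) report cAMP rise as membrane depolarization. Membrane potential dye with 100 uM RO 20-1724 was loaded for 60 min at room temperature, then compound added for 30 min; fluorescence read at 590 nm.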
# Potency is the fitted concentration of half-maximal effect; tags give direction and shape of the fitted curve.
SMILES,Potency,activation
O=C(N1CCOCC1)N1CCN(c2nc(-c3ccc(F)cc3)cs2)CC1,inactive,
CCOC(=O)N1CCC(NC(=O)c2cc3c(-c4ccc(OC)c(OC)c4)nn(C)c3s2)CC1,inactive,
O=C(CSc1nc2ccccc2c(=O)n1Cc1ccco1)NCc1ccccc1,active: 25.1 µM,
COc1ccc(Oc2ncc3nc(-c4cccc(C#N)c4)c(=O)n(Cc4cccc(OC)c4)c3n2)cc1,active: 25.1 µM,
COc1ccc2[nH]cc(CCNc3nc(-c4cccnc4)nc4ccccc34)c2c1,inactive,
CC(C)n1cnc2cc(NCc3nc4ccccc4n3C)ccc21,inactive,
CC1CCC(C(=O)NC(C(=O)N2CCN(c3ccccn3)CC2)C(C)C)CC1 (stereo unspecified),"inconclusive [activator, single point]",
CCOC(=O)c1ccc(N=CC2=C(O)CC(C)(C)CC2=O)cc1,"inconclusive [activator, single point]",
N#Cc1ccc(CN2CCC3(CC2)CCN(C(=O)c2cnccn2)CC3)cc1,"inconclusive [activator, single point]",
COc1ccccc1NC(=O)CN1CCN(c2ccc(Cl)cc2)CC1,active: 20 µM,
C1=C(c2ccccc2)CCN(c2ncnc3nc[nH]c23)C1,inactive,
Clc1ccc(OCc2nn3c(-c4ccncc4)nnc3s2)cc1,active: 31.6 µM,
O=C(O)C(=Cc1ccc(-c2ccccc2)cc1)C(=O)O,,inactive: 5.73% [at 11.4 µM]
C=C1C(=O)O[C@H]2C[C@@]3(C)CCCC(=C)[C@@H]3C[C@H]12,inactive,
CCOC(=O)CC(=O)CSc1nc2c(c(C)c1C#N)CCC2,inactive,
COC(=O)c1ccc(C(NC(=O)OCc2ccccc2)/C(C)=C/[C@@H](C)C(=O)N[C@@H](CO)Cc2ccccc2)cc1 (stereo partly specified),"inconclusive [activator, partial curve]",
COCCn1c(=O)c(-c2cc(F)cc(F)c2)nc2cnc(N3CCOCC3)nc21,"inconclusive [activator, single point]",
O=C(c1ccccc1)N(CCN1CCOCC1)C1(C(=O)Nc2ccccc2)CCCCC1,"inconclusive [activator, partial curve]",
O=C(c1cccc(F)c1)N1CCC[C@@]2(CCN(c3ccccc3)C2)C1,inactive,
CC(C)CCNC(=O)NC(=O)COc1ncnc2sccc12,"inconclusive [activator, single point]",
CN1CCN(c2ccc(Cl)cc2NC(=O)C2COc3ccccc3O2)CC1 (stereo unspecified),"inconclusive [activator, full curve]",
CCCOc1cc(C)c(S(=O)(=O)N2CCN(C)CC2)cc1C,"inconclusive [activator, partial curve]",
CCCCn1c(SCC(=O)Nc2cc(NC(=O)c3ccco3)ccc2C)nc2ccccc2c1=O,"inconclusive [activator, partial curve]",

SMILES,Potency,activation
Oc1ccc(-c2csc(NCc3ccco3)n2)cc1,inactive,
N=C(N)S[C@H]1c2ccccc2-c2cc([N+](=O)[O-])ccc21,,inactive: -0.272% [at 11.4 µM]
CCN(CC)CCOC(=O)c1c(C)oc2ccc(OC)cc12,"inconclusive [activator, partial curve]",
O=c1cc(-c2ccccc2)oc2c1ccc1ccccc12,active: 31.6 µM,
Cc1ccc(-n2c(C)nc3c(cnn3-c3ccc(F)cc3)c2=O)cc1C,"inconclusive [activator, single point]",
CCCCCCCCCCCCCC(=O)O[C@H](CC(=O)O)C[N+](C)(C)C,"inconclusive [activator, partial curve]",
Cc1c2ccccc2c(C)c2c1ccc1ccccc12,"inconclusive [activator, single point]",
O=C(Nc1ccccc1N1CCOCC1)c1ccc2ccccc2n1,"inconclusive [activator, single point]",
CCn1c(=N)n(CC(O)COc2cccc(C)c2)c2ccccc21 (stereo unspecified),,inconclusive: 38% [activator]
COC(=O)[C@@]1(Cc2ccc(F)cc2)[C@@H]2[C@@H](CC(=O)[C@H]2CC(=O)C(=O)N2CCCC2)CN1C(=O)c1ccccc1,inactive,
O=C(CSc1nnc(-c2cccs2)o1)N1CCc2ccccc21,"inconclusive [activator, single point]",
CCC(C)(C)n1nnnc1C(c1ccc(OC)c(OC)c1)N1CCN(c2cccc(OC)c2)CC1 (stereo unspecified),"inconclusive [activator, full curve, poor fit]",
COC(=O)[C@@]1(Cc2ccc(OC)cc2)[C@H]2c3cc(C(=O)N4CCCC4)n(CCCNc4ncc(C(F)(F)F)cc4Cl)c3C[C@H]2CN1C(=O)c1ccccc1,inactive,
COc1ncc2nc(-c3cc(F)cc(F)c3)c(=O)n(C[C@H]3CCCO3)c2n1,"inconclusive [activator, full curve]",
c1ccc(-c2cc(-c3nn4c(-c5ccco5)nnc4s3)c3ccccc3n2)cc1,"inconclusive [activator, single point]",
Cc1nc2c(C(=O)N3CCN(c4ccccn4)CC3)cnn2c(C)c1Cc1cccc(Cl)c1,"inconclusive [activator, single point]",
CC(Sc1nncn1C)C(=O)Nc1ccccc1-c1ccccc1 (stereo unspecified),inactive,
CCOc1ccc(OCC)c(NC(=O)CN2CCN(c3cccc(C)c3)CC2)c1,,inconclusive: 36.5% [activator]
C=CCn1c(SCC(=O)Nc2cc(C)c(Cl)cc2OC)nnc1-c1ccco1,active: 25.1 µM,
O=C(Cn1c(-c2ccco2)nc2ccccc21)N1CCCCC1,"inconclusive [activator, single point]",
O=C(NCCN1CCOCC1)c1noc2c1CCc1ccccc1-2,"inconclusive [activator, single point]",
Cc1ccc(C)c(CN2C(=O)C3(OCCCO3)c3ccccc32)c1,"inconclusive [activator, single point]",
CCOC(=O)c1oc2ccc(Br)cc2c1CSc1nnc(C)s1,active: 31.6 µM,
